These results are taken from the supplement of paper PMC6531468.

This is one part of the list. Values come from read counts of a selection and are noisy. Each score is taken over the longer molecules that contain the sequence shown.

UniProt O00425, sequence (O00425 whole entry): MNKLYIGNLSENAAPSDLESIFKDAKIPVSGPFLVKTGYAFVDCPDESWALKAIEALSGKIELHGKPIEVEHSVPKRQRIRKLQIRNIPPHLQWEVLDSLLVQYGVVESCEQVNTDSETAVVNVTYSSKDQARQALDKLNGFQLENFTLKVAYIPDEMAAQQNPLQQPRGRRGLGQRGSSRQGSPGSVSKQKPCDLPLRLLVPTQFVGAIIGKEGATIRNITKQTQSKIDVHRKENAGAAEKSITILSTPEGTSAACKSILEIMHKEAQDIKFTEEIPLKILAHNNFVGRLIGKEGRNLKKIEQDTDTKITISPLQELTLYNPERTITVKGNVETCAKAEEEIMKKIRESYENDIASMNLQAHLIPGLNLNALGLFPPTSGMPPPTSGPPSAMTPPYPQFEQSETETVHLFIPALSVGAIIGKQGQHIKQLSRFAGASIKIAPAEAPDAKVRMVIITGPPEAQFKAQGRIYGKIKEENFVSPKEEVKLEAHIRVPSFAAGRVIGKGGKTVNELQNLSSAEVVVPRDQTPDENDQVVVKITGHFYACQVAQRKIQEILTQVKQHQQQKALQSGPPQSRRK

In the test the target is IMP3 full-length (UniProt O00425). The test can be described thus: 6-mer SELEX enrichment z-score vs GST control; IMP3 is the RNA-binding protein IGF2BP3; higher = more enriched by binding. As to conditions: construct: FL IMP3 (1-579); SELEX round: R4. As for the experimental part:
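SELEX-seq with GST-tagged full-length IMP3 and an N40 RNA pool, round 4. Each 6-mer is scored as an enrichment z-score of sequence tags containing it, normalised to the matching GST SELEX round. RNA written as DNA (T = U).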
With CGTGGC, the “6-mer SELEX enrichment z-score” value turned out to be 0.127. As for AGCGCT, the “6-mer SELEX enrichment z-score” value was -0.231. The result for GCACTA reads 0.827; that for GCTTCA, 0.498; that for CACAAA, 0.85.

As for TGGGAC, the “6-mer SELEX enrichment z-score” value was -0.038.

Regarding CAACCT, the “6-mer SELEX enrichment z-score” value was -0.929.

On to CGGCCT, for which the “6-mer SELEX enrichment z-score” value was determined as 0.826. Take GAATTT: the “6-mer SELEX enrichment z-score” value was -0.225. The result for CCCGAG reads -1.7; that for ATCATA, 2.46; that for GTTAGG, 0.255.

For CTCGCT, the “6-mer SELEX enrichment z-score” value is 0.037. Turning to AATACC, the “6-mer SELEX enrichment z-score” value is -1.3. Regarding GGTATC, the “6-mer SELEX enrichment z-score” value is -0.035. Regarding TCTGAC, the “6-mer SELEX enrichment z-score” value was -0.24. GTAGTC: the “6-mer SELEX enrichment z-score” value was -0.06. On to ACTGAG, for which the “6-mer SELEX enrichment z-score” value is -0.976. Take CGATCG: the “6-mer SELEX enrichment z-score” value was -0.393.

For the sequence CCCAAG, the “6-mer SELEX enrichment z-score” value was -1.7. With CGGAAG, the “6-mer SELEX enrichment z-score” value is -0.206.

For the sequence GTTTTT, the “6-mer SELEX enrichment z-score” value worked out at 0.094. In the case of TCCACA, the “6-mer SELEX enrichment z-score” value turned out to be 0.712. TGCCCT: the “6-mer SELEX enrichment z-score” value is -0.882. Take TAACTG: the “6-mer SELEX enrichment z-score” value was -0.492.

As for GCAGGC, the “6-mer SELEX enrichment z-score” value worked out at 1.87. The result for AGTGTG reads -0.604. On to TCGCGC, for which the “6-mer SELEX enrichment z-score” value is 0.047.

As to ATCCAC, the “6-mer SELEX enrichment z-score” value was -0.528. For the sequence TACCCC, the “6-mer SELEX enrichment z-score” value is -0.481. With GCGTGT, the “6-mer SELEX enrichment z-score” value is -0.506.

Regarding CTATCC, the “6-mer SELEX enrichment z-score” value is -0.653.

As for TAGTTG, the “6-mer SELEX enrichment z-score” value was -0.167. With GCTATC the figure was 0.126; with GCCGTC, 0.675. With TCGTTA, the “6-mer SELEX enrichment z-score” value worked out at 0.037.

As for TCCATT, the “6-mer SELEX enrichment z-score” value was 0.558. Consider ATCTAA, for which the “6-mer SELEX enrichment z-score” value is -0.316. With CCTTTC the figure was -0.069; with TAAACT, -0.799.
